Assay results taken from PubChem BioAssay AID1508642 (National Center for Advancing Translational Sciences (NCATS), 2021).
In all, about 43,000 compounds went through this assay and about 200 (0.47%) were called active. Roughly 12% stayed inconclusive and do not appear here. Calls come from the whole dose curve; as a rule, active = well fitted cell-killing curve with a large enough effect; inconclusive = small, poorly fitted or top-dose-only effect, or effect the other way; inactive = flat fitted curve, though single readings scatter. This is one part of the list.

Assay: Cell viability qHTS assay in S16 Pmp22-F2sN cells; note: nearly all actives have a fitted effect of over 65% in size
Settings: S16 Pmp22-F2sN Schwann cells (luciferase reporters placed in the Pmp22 gene) viability, CellTiter-Glo, 24 h; series mostly up to 57.5 µM; activity change, negative = cytotoxicity: at the top concentration
Summary of the method: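 Rat S16 Schwann reporter line, 24 h treatment with library compounds delivered at 23 nL per well. Cell viability by CellTiter-Glo luminescence.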
% is set by controls: 0 for no effect and ±100 for the full control effect.

SMILES | activity change, negative = cytotoxicity
CCOC(=O)c1c(NC(=O)CSc2cn(CCNC(=O)c3ccccc3OC)c3ccccc23)sc2c1CCC2 | inactive: 4.59%
CC(C)c1nc2n(n1)C1(CCCCC1)[C@@H]1CCCC[C@@H]1N2 | inactive: 2.55%
O=C(CSc1nc2c([nH]c3ccccc32)c(=O)n1-c1cccc(Cl)c1)N1CCOCC1 | inactive: 3.8%
COc1cccc(CNC(=O)C2(c3cccs3)CCOCC2)c1 | inactive: 3.33%
COc1c(Cl)cc(C(=O)N(Cc2ccc(C)o2)C2CCS(=O)(=O)C2)cc1Cl (stereo not given) | inactive: -4.32%
Cc1cccc(Cn2c(C)c(CNC3CCCCCC3)c(C(=O)O)c2C)c1 | inactive: 5.31%
O=C(Cn1c(=O)c2ccccc2n(CC(=O)Nc2ccc(F)cc2)c1=O)NCCc1ccccc1 | inactive: 19.5%
COc1ccc(-c2nc3c4ccccc4n(CC(=O)N4CCN(c5ccc(F)cc5)CC4)c(=O)n3n2)cc1 | inactive: 1.17%
CC(C)(C)c1ccccc1NC(=O)CSc1nc(-c2cccs2)cc(C(F)(F)F)n1 | inactive: -16.6%
Cc1nn(CC(=O)Nc2cc(F)ccc2F)c(=O)c2cccn12 | inactive: 2.38%
CC(C)c1noc(-c2ccccc2OCC(=O)Nc2ccccc2[N+](=O)[O-])n1 | inactive: -28.7%
CCN(C(=O)c1cc2c(=O)n3cccc(C)c3nc2s1)c1ccc(C)c(C)c1 | inactive: -5.84%
CCC(NC(=O)Nc1cc(OC)ccc1OC)c1c(-n2cccc2)sc2c1CCN(CC)C2 (stereo not given) | inactive: 5.37%
Cc1c(CNC2CCCCC2)c(C(=O)O)c(C)n1Cc1ccc(F)cc1 | inactive: 0.178%
CCC(=O)Nc1ccc2nc3c(=O)n(C)c(=O)n(C)c3nc2c1 | inactive: 3.51%
CCOC(=O)COc1ccc([N+](=O)[O-])cc1-c1ccnc2cc(-c3ccc(C)cc3)nn12 | inactive: 10.6%
COc1ccc(C(=O)N(c2ccc(OC)cc2)S(=O)(=O)c2ccc3c(c2)n(C)c(=O)n3C)cc1 | inactive: -10%
CCOC(=O)c1ccc(NC(=O)C2(S(=O)(=O)c3ccc(Cl)cc3)CC2)cc1 | inactive: 12.4%
C=Cc1ccc(COc2ccc3oc(-c4ccccc4)c(C(=O)OCC)c3c2)cc1 | inactive: 7.48%
COc1ccc(CNC(=O)c2cc(=O)c3cc(C)ccc3o2)cc1 | inactive: -13.2%
Cc1cccc(C)c1NS(=O)(=O)c1ccc(NS(=O)(=O)c2ccc3c(c2)OCCO3)cc1 | inactive: -4.37%
Cc1ccccc1NC(=O)CCC(=O)N1CC(C)Sc2ccccc21 (stereo not given) | inactive: -6.36%
COc1cccc(CNC(=O)CSC2=Nc3ccccc3C3=NC(C(C)C)C(=O)N23)c1 (stereo not given) | inactive: 3.14%
O=C(Nc1cccc(Cl)c1Cl)c1cc(S(=O)(=O)NCCc2ccccc2)ccc1F | inactive: -3.13%

SMILES | activity change, negative = cytotoxicity
O=C(CN1C(=O)C2(SCC(=O)N2c2ccccc2)c2ccccc21)NCc1ccccc1 (stereo not given) | inactive: 8.75%
NC(=O)CSc1ncc2c(n1)-c1ccccc1N(Cc1ccc(Cl)cc1)S2(=O)=O | inactive: 15.6%
O=C(c1cc2ccc3cccnc3c2[nH]1)N1CCN(c2ccc(Cl)cc2)CC1 | inactive: -4.56%
Cc1c(Cl)cccc1NC(=O)Cn1nnc2sc3c(c2c1=O)CCCC3 | inactive: 9.45%
COc1ccc(-c2nc3ccccc3o2)cc1NC(=O)c1cc([N+](=O)[O-])ccc1N1CCOCC1 | inactive: 7.21%
Cc1ccc(S(=O)(=O)c2cn(CC(=O)Nc3ccc4c(c3)OCO4)c3ccc(C)cc3c2=O)cc1 | inactive: 7.68%
COc1ccc(-c2ccc(CCC(=O)O)n2-c2ccccc2C(F)(F)F)cc1 | inactive: -24.7%
CCC1CN(CC(=O)NCc2cccc(Br)c2)c2ccccc2S1 (stereo not given) | inactive: -20.5%
Cc1ccccc1OCc1nnc(SCc2cc(=O)c3cc(F)ccc3[nH]2)n1C | inactive: -27.2%
N#C/C(=C\c1cccc(F)c1)c1nc(-c2cc3ccccc3oc2=O)cs1 | inactive: 19.9%
Cc1ccc2c(c1)c1c(c(=O)n(Cc3ccccc3)c(=O)n1Cc1cccc(F)c1)n2C | inactive: 5.79%
CCOC(=O)CN(Cc1ccccc1)C(C(=O)NC1CCCCC1)c1ccccc1 (stereo not given) | inactive: -12.5%
CCOc1ccc(-c2cc(C)n3nc(C(=O)Nc4ccc(C)c(C)c4)cc3n2)cc1 | inactive: 7.39%
CCc1nnc(SCC(=O)Nc2ccc(OC)c(OC)c2)c2cc3occc3n12 | inactive: 12.4%
CCc1ccc(N2CC(C)Cn3c2nc2c3c(=O)n(CC(=O)O)c(=O)n2C)cc1 (stereo not given) | inactive: 9.9%
COC(=O)Cc1c(C)nc2nc(NCc3ccc(Br)cc3)[nH]n2c1=O | inactive: -2.03%
CCOc1ccc(-n2cc(-c3ccccc3)c3c(NCc4ccccc4)ncnc32)cc1 | inactive: -11.4%
COC(=O)Cc1c(C)c2ccc3c(c2oc1=O)CN(Cc1ccc(Cl)cc1)CO3 | inactive: -1.39%
COc1cccc(NC(=O)C2CC(=O)N(c3ccc(Br)cc3)C2)c1 (stereo not given) | inactive: 6.81%
COc1ccc(NC(=O)CCn2cnnn2)cc1 | inactive: 9.06%
COc1ccc(CNC(=O)C2CCN(S(=O)(=O)N3CCC(C)CC3)CC2)c(OC)c1 | inactive: 5.55%
Cc1ccc(NS(=O)(=O)c2cn(C)c(C)n2)c(Br)c1 | inactive: 3.48%
COc1cc(CN(C(=O)c2ccc(C)cc2)C2CCS(=O)(=O)C2)cc(OC)c1OC (stereo not given) | inactive: -7.11%
CCN(CC)c1ccc(NC(=O)Cn2cc3c(n2)CCCC3)c(C)c1 | inactive: -20.4%

SMILES | activity change, negative = cytotoxicity
Cn1c(=O)n(C)c2cc(N3CCCCC3)c(NC(=O)Nc3ccc(Br)cc3)cc21 | inactive: -4.21%
CCc1ccc(NC(=O)CSc2nc3c([nH]c4ccccc43)c(=O)n2C)cc1 | inactive: 16.7%
Cc1c(NC(=O)C(C)(C)C)cccc1-c1nc2ccccc2s1 | inactive: -3.36%
CCOc1ccccc1NC(=O)Cn1c(=O)n(-c2ccc(Cl)cc2)c(=O)c2oc3ccccc3c21 | inactive: -5.85%
Cn1cc(S(=O)(=O)N2CCc3ccccc32)cc1C(=O)Nc1ccc(C(F)(F)F)cc1 | inactive: -7.87%
COc1ccc(N2CCN(C(CNC(=O)c3c(F)cccc3F)c3ccc4c(c3)OCO4)CC2)cc1 (stereo not given) | inactive: 0.0536%
CCOC(=O)c1cc2c(=O)n3ccccc3nc2n(CC2CCCO2)c1=NC(=O)c1ccccc1OCC (stereo not given) | inactive: 5.7%
Cc1ccc(-n2c(=O)c3ccc(C(=O)NCc4ccccc4Cl)cc3n(Cc3cccc(F)c3)c2=O)cc1 | inactive: 0.583%
Cc1ccc(CNC(=O)C2CCCN(c3nn4cc(-c5ccc(C)cc5)nc4s3)C2)cc1 (stereo not given) | inactive: 5.56%
CCOc1ccccc1NC(=O)CSc1nnc(CC)c(CC)n1 | inactive: -5.81%
CCCCC(CC)CNC(=O)c1ccc(Cn2c(=O)[nH]c3cc(OC)c(OC)cc3c2=O)cc1 (stereo not given) | inactive: -14.2%
CCN1c2ccccc2-c2nc(SCC(=O)Nc3cc(OC)cc(OC)c3)ncc2S1(=O)=O | inactive: 2.59%
CCCN(C(=O)c1c(C)oc2ncn(CC(C)C)c(=O)c12)c1ccccc1C | inactive: 9.91%
CC(C)n1c(SCC(=O)c2ccc(F)cc2)nc2c(sc3ccccc32)c1=O | inactive: 5.97%
COc1ccc(CCNC(=O)c2c(Nc3ccccc3C)sc(C(=O)c3ccccc3)c2N)cc1OC | inactive: -3.27%
Cc1cccc2nc(Cn3c(=O)n(-c4ccccc4)c(=O)c4c5c(sc43)CCC5)cc(=O)n12 | inactive: -0.733%
Cc1ccc(O)c(NC(=O)C2=CC(c3cccs3)=NS(=O)(=O)N2C)c1 | inactive: 5.54%
Cc1ccccc1OCC(=O)Nc1nnc(SCc2cc(=O)n3cccc(C)c3n2)s1 | inactive: -2.41%
COc1cccc(CNC(=O)c2cc3cc(C)ccc3n2C)c1 | inactive: -1.65%
COc1cccc(CN2CCCN(Cc3ccc(F)cc3)S2(=O)=O)c1 | inactive: 1.02%
COc1ccc(-n2c(=O)c3ccccc3n(Cc3ccc(F)cc3Cl)c2=O)cc1OC | inactive: 1.31%
Clc1cccc(-c2nnc(CN3CCN(c4ccccn4)CC3)o2)c1 | inactive: 1.83%
Cc1cc(S(=O)(=O)Nc2cc3c(cc2N2CCOCC2)n(C)c(=O)n3C)ccc1F | inactive: -4.81%
CCc1nc2ccc(C(=O)NCCc3ccc(SC)cc3)cc2nc1CC | inactive: -1.47%

SMILES | activity change, negative = cytotoxicity
COc1ccc(NC(=O)C(CC(C)C)NC(=O)C2CCCCC2)c(OC)c1 (stereo not given) | inactive: -1.91%
CC(=O)Nc1nonc1-c1nnc(SCC(=O)Nc2ccccc2Cl)n1C | inactive: 0.992%
CCOc1ccc(CNC(=O)C2CCN(C3=NS(=O)(=O)C(c4ccc(C)cc4)=C3CC)CC2)cc1 | inactive: -17.7%
COc1ccc(NC(=O)C2CCN(C(=O)c3sc4nc[nH]c(=O)c4c3C)CC2)c(OC)c1 | inactive: 3.47%
CCc1ccccc1N1CC(c2nnc(NC(=O)c3ccco3)s2)CC1=O (stereo not given) | inactive: -2.53%
CCN(CC)S(=O)(=O)c1ccc2c(c1)N(CC(=O)N1CCN(c3cc(Cl)ccc3C)CC1)C(=O)CO2 | inactive: -7.57%
CC(=O)OCc1cnc(C)c2oc(=O)c(C(=O)Nc3ccc(F)cc3C)cc12 | inactive: -0.102%
Cc1cccc(N2CCN(c3nc4ccccc4c4nc(-c5ccccc5)nn34)CC2)c1C | inactive: -3.46%
Cc1cccc(C)c1OCC(=O)Nc1nonc1-c1ccc(Br)cc1 | inactive: -1.91%
Cc1ccc(C(=O)Nc2ccc(-n3c(C)nc4ccccc4c3=O)cc2)cc1[N+](=O)[O-] | inactive: -13.8%
COc1ccc(OC)c(NC(=O)Cn2c(=O)oc3cc(S(=O)(=O)NCc4ccccc4)ccc32)c1 | inactive: -2.64%
O=C(NCC12CC3CC(CC(C3)C1)C2)c1cc2nc(-c3ccc(Cl)cc3)cc(C(F)(F)F)n2n1 | inactive: 3.89%
CCN(C(=O)CCS(=O)(=O)c1cccc2nsnc12)c1cccc(C)c1 | inactive: 8.85%
O=C(Nc1nc2n(n1)C(c1ccc(F)cc1)C=C(c1ccc(Cl)cc1)N2)c1ccco1 (stereo not given) | inactive: -0.403%
CCOc1ccc2oc(=O)cc(CN3CCN(c4ccc(OC)cc4)CC3)c2c1 | inactive: 2.5%
CCN(C(=O)c1cc2c(s1)-c1c(C)cccc1OC2)c1cc(C)ccc1C | inactive: -0.556%
Cc1cccc(NC(=O)CSc2nc3c(c(=O)[nH]2)CN(Cc2ccc4c(c2)OCO4)CC3)c1C | inactive: 5.52%
CC(=O)c1cc(-c2ccccc2)n(CC(=O)NC2CCCCCC2)c1C | inactive: -2.49%
O=C(Cn1c(=O)n(Cc2cccs2)c(=O)c2cccnc21)Nc1ccccc1F | inactive: 16.3%
Cc1cc(O)c(C(c2cccc(F)c2)N2CCC(C)CC2)c(=O)n1Cc1ccco1 (stereo not given) | inactive: 12.3%
O=C(NCCc1ccc(Cl)cc1)c1cccn1-c1nnc(N2CCCCC2)s1 | inactive: -1.6%
CCc1nc(-c2cc(S(=O)(=O)N3CCN(c4ccc(F)cc4)CC3)ccc2OC)no1 | inactive: 3.72%
CN(C1CCCCC1)S(=O)(=O)c1ccc(C(=O)Nc2sc3c(c2C(N)=O)CC(C)(C)NC3(C)C)cc1 | inactive: -14.6%
